From the supplement of paper PMC11369174, “Proteome-scale characterisation of motif-based interactome rewiring by disease mutations” (Molecular Systems Biology, 2024)
The other results are listed elsewhere or left out. These are enrichments in a pooled selection; single values are uncertain.

Molecular target: T1, SIN3A_PAH__Q96ST3_295_383
T1 chain: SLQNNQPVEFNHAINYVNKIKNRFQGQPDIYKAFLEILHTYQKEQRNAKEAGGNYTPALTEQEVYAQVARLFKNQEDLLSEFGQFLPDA
Assay: mean normalised NGS count of phage-displayed peptide after selection on bait (% of reads); baits are purified protein domains named by gene / domain / UniProt id / residues; peptides come from disordered regions of human proteins; higher = stronger enrichment / binding
Conditions: replicate selections in which the peptide was seen: 2

| Binder | mean normalised NGS count |
| --- | --- |
| ETVGAALLLNLLAGLG [GPIHBP1 162-177 wt] | 0.155 |

Same assay, conditions: replicate selections in which the peptide was seen: 3

| Binder | mean normalised NGS count |
| --- | --- |
| YLSLLQAATFKGWMDI [SCN1A 1422-1437 mut P35498.V1428A] | 0.0179 |
| YLSLLQAATFKGWMDI [SCN4A 1422-1437 mut P35498.V1428A] | 0.0179 |
| MAVLVSEASARLLQQE [RARS1 1-16 mut P54136.D2A] | 0.336 |
| VTSSVRPDSWAALALA [GATA6 580-595 wt] | 1.48 |
| YLSLLQAATFKGWMDI [SCN2A 1422-1437 mut P35498.V1428A] | 0.0179 |
| LMPEEAWLLAEIGAVT [TSEN34 52-67 mut Q9BSV6.R58W] | 3.32 |

Same assay, conditions: replicate selections in which the peptide was seen: 4

| Binder | mean normalised NGS count |
| --- | --- |
| LEEWLRQEMEVQNQHA [NBN 719-734 wt] | 0.16 |
| GTRPGLEELYWLATLQ [NRL 64-79 wt] | 0.282 |
| MGLLEAAARALVGAPF [PLP1 1-16 wt] | 12.5 |

Same assay, conditions: replicate selections in which the peptide was seen: 5

| Binder | mean normalised NGS count |
| --- | --- |
| MDVLVSEASARLLQQE [RARS1 1-16 wt] | 16.8 |

The binders below were run against SNX27_PDZ__Q96L92_40_141 in the same assay as above. Conditions: replicate selections in which the peptide was seen: 2.

| Binder | mean normalised NGS count |
| --- | --- |
| VTVETHPVQETTFHVA [DYRK1A 577-592 wt] | 0.00342 |
| HWTINKEIKETEFKGI [AHI1 786-801 wt] | 0.00638 |

Same assay, conditions: replicate selections in which the peptide was seen: 3

| Binder | mean normalised NGS count |
| --- | --- |
| QNSPWKETSLDHPYEK [INAVA 320-335 wt] | 0.0118 |

Same assay, conditions: replicate selections in which the peptide was seen: 4

| Binder | mean normalised NGS count |
| --- | --- |
| DLDLTVQETSLQGPVG [CASR 1022-1037 mut P41180.G1031S] | 0.0105 |

Same assay, conditions: replicate selections in which the peptide was seen: 6

| Binder | mean normalised NGS count |
| --- | --- |
| EQLLENAAISETSFSS [ASXL3 600-615 mut Q9C0F0.S603L] | 50 |
| EQLSENAAISETSFSS [ASXL3 600-615 wt] | 49.2 |

Molecular target: T2, SPOP_MATH__O43791_19_176
T2 chain: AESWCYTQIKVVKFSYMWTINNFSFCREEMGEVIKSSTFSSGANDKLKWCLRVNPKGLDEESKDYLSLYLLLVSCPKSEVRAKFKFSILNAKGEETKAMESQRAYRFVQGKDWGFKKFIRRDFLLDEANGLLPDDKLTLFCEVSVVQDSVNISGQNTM
Assay: as above
Conditions: replicate selections in which the peptide was seen: 2

| Binder | mean normalised NGS count |
| --- | --- |
| NSWNSLVLADSHGDII [GATA4 425-440 mut P43694.D425N] | 0.00452 |
| SVSLKLEESKATSSSN [ATRX 1978-1993 wt] | 0.136 |
| YNASVSVPDSSGPERI [HNRNPK 72-87 wt] | 0.00514 |
| LELSVVAKEVKKAPVI [MYPN 1159-1174 wt] | 0.112 |

Same assay, conditions: replicate selections in which the peptide was seen: 3

| Binder | mean normalised NGS count |
| --- | --- |
| LQPAHRLSASPTVSSS [HNF1A 578-593 wt] | 0.193 |
| NATELQIDSASSSEQI [BRCA1 635-650 mut P38398.E649Q] | 1.82 |
| NINEVGSSTNEVGSSI [BRCA1 1043-1058 wt] | 0.00526 |
| ADSLWWGTITSTTIGY [KCNQ4 271-286 mut P56696.L281S] | 0.0526 |
| VSVPDSSDPERILSIS [HNRNPK 76-91 mut P61978.G83D] | 0.0702 |
| VSVPDSSGPERILSIS [HNRNPK 76-91 wt] | 1.58 |
| SGPESSVKVTSSIPVF [POGZ 352-367 mut Q7Z3K3.M358V] | 0.104 |

Same assay, conditions: replicate selections in which the peptide was seen: 4

| Binder | mean normalised NGS count |
| --- | --- |
| LQPAHGLSASPTVSSS [HNF1A 578-593 mut P20823.R583G] | 0.0859 |
| VSSSSLVLYQSSDSSN [HNF1A 590-605 wt] | 0.22 |
| EVTTTTTTITEKHKLN [ANK2 819-834 wt] | 1.23 |
| SSVKVTSSIPVFDLQD [POGZ 356-371 mut Q7Z3K3.M358V] | 0.217 |
| EEDGVSSTSPMEVLDR [TSC1 636-651 mut Q92574.P641S] | 6.11 |
| QLSPIQLPQSSSGNTI [SALL1 315-330 mut Q9NSC2.P317S] | 0.076 |

Same assay, conditions: replicate selections in which the peptide was seen: 5

| Binder | mean normalised NGS count |
| --- | --- |
| LTVRNPNIVSSSSNTR [FSHR 554-569 mut P23945.D567N] | 0.264 |
| ADSTVVMEEGSPGEVP [TSC2 1294-1309 mut P49815.A1297T] | 0.245 |
| TVAELVEAHTNFGFQP [SCNN1B 577-592 wt] | 0.324 |
| YNASVSVPDSSGPEHI [HNRNPK 72-87 mut P61978.R86H] | 2.64 |
| VTSSVLPDSWAALALA [GATA6 580-595 mut Q92908.R585L] | 0.323 |

Same assay, conditions: replicate selections in which the peptide was seen: 6

| Binder | mean normalised NGS count |
| --- | --- |
| ALSPGVSTSGISISQG [ARID1A 656-671 mut O14497.S668I] | 1.82 |
| ALSPGVSTSGISSSQG [ARID1A 656-671 wt] | 9.23 |
| LTVRNPNIVSSSSDTR [FSHR 554-569 wt] | 22.4 |

Each binder was assayed against Src_SH3__P12931_87_144 in the same assay as above. Conditions: replicate selections in which the peptide was seen: 2.

| Binder | mean normalised NGS count |
| --- | --- |
| TPLPVIPHQKDPALDT [LDB3 98-113 wt] | 0.0772 |
| PPPPLPPQQHQPAQPG [KCNC3 32-47 mut Q14003.Q41H] | 0.208 |

Same assay, conditions: replicate selections in which the peptide was seen: 3

| Binder | mean normalised NGS count |
| --- | --- |
| AGDSRGRQYQELPRAP [KCNH2 1001-1016 mut Q12809.W1001C] | 0.109 |
| PFVPGGPPPITLPTAP [RERE 1038-1053 mut Q9P2R6.P1049L] | 0.909 |
| RQLPYAPSVESPYSKS [CTNND2 504-519 mut Q9UQB3.Q507P] | 0.0234 |

Same assay, conditions: replicate selections in which the peptide was seen: 4

| Binder | mean normalised NGS count |
| --- | --- |
| STTAPPVQTPLPVIPH [LDB3 90-105 wt] | 0.00826 |
| EGVPLISLPAVPQGGS [SZT2 1830-1845 mut Q5T011.R1839C] | 0.0649 |
| SLPELPLQTQDAADGE [ANKRD11 2137-2152 mut Q6UB99.K2146Q] | 0.14 |
| QLPKVPEMKLPKMPEM [PRX 658-673 wt] | 0.00865 |
| ADPYRQLPYAPSVESP [CTNND2 500-515 mut Q9UQB3.Q507P] | 0.0682 |

Same assay, conditions: replicate selections in which the peptide was seen: 5

| Binder | mean normalised NGS count |
| --- | --- |
| SVPAPLPSPPAGTLTA [CACNA1H 680-695 wt] | 0.067 |
| PLPSPPAGTLTAELKS [CACNA1H 684-699 wt] | 0.0246 |
| SLTLPPIPAGISNMAV [GLI2 1550-1565 mut P10070.S1555P] | 3.8 |
| PPPPLPPQQQQPAQPG [KCNC3 32-47 wt] | 0.922 |
| SLPELPLQTKDAADGE [ANKRD11 2137-2152 wt] | 0.873 |
